Source: article PMC4387718, “In vivo biochemical analyses reveal distinct roles of β-importins and eEF1A in tRNA subcellular traffic” (Genes & Development, 2015)
Results are given in words; binding and its absence hold for the method and conditions named. Binding seen in cells or lysates may run through a third protein. Some entries that bind do so weakly or less than the wild type. For some assays here: Where a sequence is shown, tags or fusion partners need not be part of it.

Chains of the proteins cited; added tags and fusions are not shown.
UniProt Q06142: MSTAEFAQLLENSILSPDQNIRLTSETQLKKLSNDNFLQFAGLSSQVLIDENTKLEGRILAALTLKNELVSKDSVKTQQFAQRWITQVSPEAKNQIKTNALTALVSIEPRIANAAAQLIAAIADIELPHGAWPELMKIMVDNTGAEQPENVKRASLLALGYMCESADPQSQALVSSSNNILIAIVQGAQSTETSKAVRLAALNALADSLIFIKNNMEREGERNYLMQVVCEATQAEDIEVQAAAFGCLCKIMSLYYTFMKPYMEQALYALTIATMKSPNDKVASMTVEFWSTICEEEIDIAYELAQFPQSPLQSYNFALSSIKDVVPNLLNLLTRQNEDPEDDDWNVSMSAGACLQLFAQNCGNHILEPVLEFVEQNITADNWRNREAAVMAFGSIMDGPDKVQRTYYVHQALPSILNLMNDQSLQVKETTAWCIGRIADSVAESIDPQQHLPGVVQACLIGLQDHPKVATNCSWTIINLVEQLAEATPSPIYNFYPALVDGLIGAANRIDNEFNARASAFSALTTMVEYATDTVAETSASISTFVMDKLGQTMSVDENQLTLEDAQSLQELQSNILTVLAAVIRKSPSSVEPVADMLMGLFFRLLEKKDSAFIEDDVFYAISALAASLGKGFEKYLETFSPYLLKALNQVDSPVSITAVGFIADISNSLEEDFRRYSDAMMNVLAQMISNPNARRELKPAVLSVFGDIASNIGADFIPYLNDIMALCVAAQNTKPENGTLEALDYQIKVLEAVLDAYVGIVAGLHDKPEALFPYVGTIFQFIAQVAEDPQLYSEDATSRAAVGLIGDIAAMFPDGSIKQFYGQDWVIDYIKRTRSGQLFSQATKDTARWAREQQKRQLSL

T1: MORF (His6-HA epitope-ZZ protein A)-tagged Msn5 (S. cerevisiae) (UniProt P52918)
T1 sequence: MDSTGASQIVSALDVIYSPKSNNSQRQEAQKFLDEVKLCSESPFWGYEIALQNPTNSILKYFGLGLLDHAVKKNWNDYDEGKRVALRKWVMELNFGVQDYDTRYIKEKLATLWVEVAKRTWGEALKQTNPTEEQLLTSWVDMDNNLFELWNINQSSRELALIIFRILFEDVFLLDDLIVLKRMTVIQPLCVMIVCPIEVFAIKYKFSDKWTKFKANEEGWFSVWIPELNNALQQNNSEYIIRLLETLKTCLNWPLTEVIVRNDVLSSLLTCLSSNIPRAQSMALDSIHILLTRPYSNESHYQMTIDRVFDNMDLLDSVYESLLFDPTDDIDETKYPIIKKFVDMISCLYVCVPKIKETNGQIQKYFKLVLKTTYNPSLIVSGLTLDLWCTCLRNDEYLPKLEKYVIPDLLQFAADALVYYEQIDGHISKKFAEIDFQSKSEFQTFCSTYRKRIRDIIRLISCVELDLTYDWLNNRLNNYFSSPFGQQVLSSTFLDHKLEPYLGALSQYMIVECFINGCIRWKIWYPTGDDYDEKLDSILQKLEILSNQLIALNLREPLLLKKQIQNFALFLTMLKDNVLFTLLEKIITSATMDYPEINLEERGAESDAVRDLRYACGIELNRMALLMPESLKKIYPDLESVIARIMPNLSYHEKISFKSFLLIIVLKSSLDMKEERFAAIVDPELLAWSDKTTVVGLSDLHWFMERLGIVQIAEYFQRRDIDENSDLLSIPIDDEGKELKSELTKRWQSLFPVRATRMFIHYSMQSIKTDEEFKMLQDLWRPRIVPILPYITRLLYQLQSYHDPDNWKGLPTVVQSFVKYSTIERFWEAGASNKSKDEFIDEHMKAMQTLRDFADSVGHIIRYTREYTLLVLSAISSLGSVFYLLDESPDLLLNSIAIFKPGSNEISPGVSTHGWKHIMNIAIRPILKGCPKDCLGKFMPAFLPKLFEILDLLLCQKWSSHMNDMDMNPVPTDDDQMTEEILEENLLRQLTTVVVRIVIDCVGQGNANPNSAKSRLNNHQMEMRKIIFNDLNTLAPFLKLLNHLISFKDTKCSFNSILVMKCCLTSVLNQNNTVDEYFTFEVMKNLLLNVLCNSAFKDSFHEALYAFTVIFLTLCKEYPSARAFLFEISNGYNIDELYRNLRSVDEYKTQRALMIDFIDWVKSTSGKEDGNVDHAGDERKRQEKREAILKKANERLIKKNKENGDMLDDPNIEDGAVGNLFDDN

T2: MORF (His6-HA epitope-ZZ protein A)-tagged Los1 (S. cerevisiae) (UniProt P33418)
T2 sequence: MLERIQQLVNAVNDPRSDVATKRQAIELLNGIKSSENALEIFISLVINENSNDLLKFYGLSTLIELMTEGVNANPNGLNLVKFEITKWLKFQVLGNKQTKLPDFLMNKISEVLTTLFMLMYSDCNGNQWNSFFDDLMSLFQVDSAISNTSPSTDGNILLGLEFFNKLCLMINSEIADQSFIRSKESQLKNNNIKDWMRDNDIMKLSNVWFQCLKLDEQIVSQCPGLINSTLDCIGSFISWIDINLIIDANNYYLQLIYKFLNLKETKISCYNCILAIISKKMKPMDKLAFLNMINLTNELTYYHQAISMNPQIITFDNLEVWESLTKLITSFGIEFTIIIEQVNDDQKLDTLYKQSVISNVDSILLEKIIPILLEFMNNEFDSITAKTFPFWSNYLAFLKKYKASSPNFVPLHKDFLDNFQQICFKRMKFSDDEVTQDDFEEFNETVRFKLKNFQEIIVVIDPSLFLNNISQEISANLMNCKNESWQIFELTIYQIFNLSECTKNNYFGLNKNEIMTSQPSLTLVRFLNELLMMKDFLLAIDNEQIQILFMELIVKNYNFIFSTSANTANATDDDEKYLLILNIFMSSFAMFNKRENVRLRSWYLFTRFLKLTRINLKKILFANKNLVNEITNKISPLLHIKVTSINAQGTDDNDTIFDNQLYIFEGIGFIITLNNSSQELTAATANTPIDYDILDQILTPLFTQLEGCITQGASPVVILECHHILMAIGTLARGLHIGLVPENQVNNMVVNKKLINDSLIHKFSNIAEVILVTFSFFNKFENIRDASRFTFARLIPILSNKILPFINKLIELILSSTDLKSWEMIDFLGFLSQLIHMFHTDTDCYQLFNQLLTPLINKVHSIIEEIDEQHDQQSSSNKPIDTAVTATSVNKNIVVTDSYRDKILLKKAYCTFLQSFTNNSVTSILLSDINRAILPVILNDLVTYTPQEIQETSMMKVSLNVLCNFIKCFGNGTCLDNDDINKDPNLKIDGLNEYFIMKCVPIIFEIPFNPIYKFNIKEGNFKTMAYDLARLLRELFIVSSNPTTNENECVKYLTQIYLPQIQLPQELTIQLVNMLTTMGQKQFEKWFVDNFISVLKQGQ


Experiments:
[1] = molecular target: ZZ (protein A)-tagged Kap95 (S. cerevisiae) (UniProt Q06142); assay: co-IP; cells with locked RanGTP, formaldehyde cross-linked; extract treated with RNase A prior to purification of the beta-importin on IgG beads; Western blot with anti-eEF1A
[2] = molecular target: ZZ (protein A)-tagged Kap95 (S. cerevisiae) (UniProt Q06142); assay: co-IP; cells with RanGTP-locked mutant, without formaldehyde cross-linking, mock treatment; IgG beads; Western blot with anti-eEF1A
[3] = molecular target: T1, MORF (His6-HA epitope-ZZ protein A)-tagged Msn5 (S. cerevisiae); assay: as above
[4] = molecular target: ZZ (protein A)-tagged Kap95 (S. cerevisiae) (UniProt Q06142); assay: co-IP; cells with RanGTP-locked Gsp1-G21V induced 1 h with galactose; formaldehyde cross-linking; tagged beta-importin precipitated from the soluble extract with IgG-conjugated magnetic beads, 30 min at 4°C; Western blot; also cells in medium with or without amino acids for 1.5 h
[5] = molecular target: T1, MORF (His6-HA epitope-ZZ protein A)-tagged Msn5 (S. cerevisiae); assay: as above
[6] = molecular target: T2, MORF (His6-HA epitope-ZZ protein A)-tagged Los1 (S. cerevisiae); assay: as above
[7] = molecular target: T1, MORF (His6-HA epitope-ZZ protein A)-tagged Msn5 (S. cerevisiae); assay: condition: only in cells with the RanGDP-locked mutant instead of the RanGTP-locked mutant; co-IP; cells with RanGDP-locked Gsp1-T24N induced 1 h with galactose; formaldehyde cross-linking; tagged beta-importin precipitated from the soluble extract with IgG-conjugated magnetic beads, 30 min at 4°C; Western blot or Sypro Ruby staining

Row | Binder | binding [1] | binding [2] | binding [3] | binding [4] | binding [5] | binding [6] | binding [7]
1 | endogenously 3Myc-tagged Tef1 (natural protein, S. cerevisiae, UniProt P02994 1-458, looked up, Tef1, yeast translation elongation factor 1 alpha (eEF1A), product of TEF1; Detected with anti-eEF1A and anti-Myc; comigrates with untagged Tef2, so the anti-eEF1A signal called Tef1/2 is of both; also called Tef1-Myc; Tef1/2; source: endogenously tagged, S. cerevisiae cell extract) MGKEKSHINVVVIGHVDSGKSTTTGHLIYKCGGIDKRTIEKFEKEAAELGKGSFKYAWVLDKLKAERERGITIDIALWKFETPKYQVTVIDAPGHRDFIKNMITGTSQADCAILIIAGGVGEFEAGISKDGQTREHALLAFTLGVRQLIVAVNKMDSVKWDESRFQEIVKETSNFIKKVGYNPKTVPFVPISGWNGDNMIEATTNAPWYKGWEKETKAGVVKGKTLLEAIDAIEQPSRPTDKPLRLPLQDVYKIGGIGTVPVGRVETGVIKPGMVVTFAPAGVTTEVKSVEMHHEQLEQGVPGDNVGFNVKNVSVKEIRRGNVCGDAKNDPPKGCASFNATVIVLNHPGQISAGYSPVLDCHTAHIACRFDELLEKNDRRSGKKLEDHPKFLKSGDAALVKFVPSKPMCVEAFSEYPPLGRFAVRDMRQTVAVGVIKSVDKTEKAAKVTKAAQKAAKK | no binding | no binding | binds | no binding | binds | no binding | no binding
2 | untagged Tef2 (natural protein, S. cerevisiae (endogenous in yeast), UniProt P02994 1-458, looked up, Tef2, yeast translation elongation factor 1 alpha (eEF1A), product of TEF2; Detected with anti-eEF1A; comigrates with Tef1-Myc; also called Tef1/2; eEF1A; source: endogenous, S. cerevisiae cell extract) MGKEKSHINVVVIGHVDSGKSTTTGHLIYKCGGIDKRTIEKFEKEAAELGKGSFKYAWVLDKLKAERERGITIDIALWKFETPKYQVTVIDAPGHRDFIKNMITGTSQADCAILIIAGGVGEFEAGISKDGQTREHALLAFTLGVRQLIVAVNKMDSVKWDESRFQEIVKETSNFIKKVGYNPKTVPFVPISGWNGDNMIEATTNAPWYKGWEKETKAGVVKGKTLLEAIDAIEQPSRPTDKPLRLPLQDVYKIGGIGTVPVGRVETGVIKPGMVVTFAPAGVTTEVKSVEMHHEQLEQGVPGDNVGFNVKNVSVKEIRRGNVCGDAKNDPPKGCASFNATVIVLNHPGQISAGYSPVLDCHTAHIACRFDELLEKNDRRSGKKLEDHPKFLKSGDAALVKFVPSKPMCVEAFSEYPPLGRFAVRDMRQTVAVGVIKSVDKTEKAAKVTKAAQKAAKK | no binding | no binding | binds | no binding | binds | no binding | no binding
